# Like-named read-outs stand apart in the source and are kept apart here.
# Tested on: SARS-CoV-2
# Details: nasopharyngeal
compound,measurement,setting,value
O=C(O)c1ccc(F)c(F)c1Nc1ccc(I)cc1Cl [zapnometinib],"SARS-CoV-2 RNA titer mean change, Diff. Zapnometinib - Placebo","non omicron, Day 3",-0.14 log10 copies/ml
same,"SARS-CoV-2 RNA titer, Baseline Mean (mean at visit)","non omicron, Day 3",3.67 log10 copies/ml
same,"SARS-CoV-2 RNA titer mean change, Diff. Zapnometinib - Placebo","non omicron, Day 5",0.10 log10 copies/ml
same,"SARS-CoV-2 RNA titer, Baseline Mean (mean at visit)","non omicron, Day 5",2.85 log10 copies/ml
same,"SARS-CoV-2 RNA titer mean change, Diff. Zapnometinib - Placebo","non omicron, Day 8",0.07 log10 copies/ml
same,"SARS-CoV-2 RNA titer, Baseline Mean (mean at visit)","non omicron, Day 8",2.21 log10 copies/ml
same,"SARS-CoV-2 RNA titer mean change, Diff. Zapnometinib - Placebo","non omicron, Day 11",-0.71 log10 copies/ml
same,"SARS-CoV-2 RNA titer, Baseline Mean (mean at visit)","non omicron, Day 11",2.43 log10 copies/ml
same,"SARS-CoV-2 RNA titer mean change, Diff. Zapnometinib - Placebo","non omicron, Day 15",0.10 log10 copies/ml
same,"SARS-CoV-2 RNA titer, Baseline Mean (mean at visit)","non omicron, Day 15",2.24 log10 copies/ml
same,"SARS-CoV-2 RNA titer, Baseline Mean (mean at visit)","non omicron, Day 30",2.00 log10 copies/ml
same,"SARS-CoV-2 RNA titer mean change, Diff. Zapnometinib - Placebo","omicron, Day 3",-0.63 log10 copies/ml
same,"SARS-CoV-2 RNA titer, Baseline Mean (mean at visit)","omicron, Day 3",6.65 log10 copies/ml
same,"SARS-CoV-2 RNA titer mean change, Diff. Zapnometinib - Placebo","omicron, Day 5",0.12 log10 copies/ml
same,"SARS-CoV-2 RNA titer, Baseline Mean (mean at visit)","omicron, Day 5",5.51 log10 copies/ml
same,"SARS-CoV-2 RNA titer mean change, Diff. Zapnometinib - Placebo","omicron, Day 8",1.06 log10 copies/ml
same,"SARS-CoV-2 RNA titer, Baseline Mean (mean at visit)","omicron, Day 8",4.09 log10 copies/ml
same,"SARS-CoV-2 RNA titer mean change, Diff. Zapnometinib - Placebo","omicron, Day 11",1.25 log10 copies/ml
same,"SARS-CoV-2 RNA titer, Baseline Mean (mean at visit)","omicron, Day 11",3.07 log10 copies/ml
same,"SARS-CoV-2 RNA titer mean change, Diff. Zapnometinib - Placebo","omicron, Day 15",0.87 log10 copies/ml
same,"SARS-CoV-2 RNA titer, Baseline Mean (mean at visit)","omicron, Day 15",2.86 log10 copies/ml
same,"SARS-CoV-2 RNA titer mean change, Diff. Zapnometinib - Placebo","omicron, Day 30",1.16 log10 copies/ml
same,"SARS-CoV-2 RNA titer, Baseline Mean (mean at visit)","omicron, Day 30",2.60 log10 copies/ml
same,"SARS-CoV-2 RNA titer mean change, Diff. Zapnometinib - Placebo","participants overall, Day 3",-0.36 log10 copies/ml
same,"SARS-CoV-2 RNA titer, Baseline Mean (mean at visit)","participants overall, Day 3",4.78 log10 copies/ml
same,"SARS-CoV-2 RNA titer mean change, Diff. Zapnometinib - Placebo","participants overall, Day 5",0.11 log10 copies/ml
same,"SARS-CoV-2 RNA titer, Baseline Mean (mean at visit)","participants overall, Day 5",3.78 log10 copies/ml
same,"SARS-CoV-2 RNA titer mean change, Diff. Zapnometinib - Placebo","participants overall, Day 8",0.53 log10 copies/ml
same,"SARS-CoV-2 RNA titer, Baseline Mean (mean at visit)","participants overall, Day 8",2.78 log10 copies/ml
same,"SARS-CoV-2 RNA titer mean change, Diff. Zapnometinib - Placebo","participants overall, Day 11",0.29 log10 copies/ml
same,"SARS-CoV-2 RNA titer, Baseline Mean (mean at visit)","participants overall, Day 11",2.42 log10 copies/ml
same,"SARS-CoV-2 RNA titer mean change, Diff. Zapnometinib - Placebo","participants overall, Day 15",0.49 log10 copies/ml
same,"SARS-CoV-2 RNA titer, Baseline Mean (mean at visit)","participants overall, Day 15",2.16 log10 copies/ml
same,"SARS-CoV-2 RNA titer mean change, Diff. Zapnometinib - Placebo","participants overall, Day 30",0.75 log10 copies/ml
same,"SARS-CoV-2 RNA titer, Baseline Mean (mean at visit)","participants overall, Day 30",1.93 log10 copies/ml

# Source: article PMC12498288 (Frontiers in Immunology, 2025)
